Test results reported in paper PMC4336329 (PLoS ONE, 2015).
Hit rate of the full screen: of about 310,000 compounds, about 2,200 (0.71%) showed an effect of 50% or more. The effect is printed as a negative number. Some of the results follow.

Target: human ether-à-go-go-related gene (hERG) potassium channel (human, UniProt Q12809)
Assay: primary screen, population patch clamp on CHO cells stably expressing hERG

Sequence of human ether-à-go-go-related gene (hERG) potassium channel (Q12809 whole entry, looked up): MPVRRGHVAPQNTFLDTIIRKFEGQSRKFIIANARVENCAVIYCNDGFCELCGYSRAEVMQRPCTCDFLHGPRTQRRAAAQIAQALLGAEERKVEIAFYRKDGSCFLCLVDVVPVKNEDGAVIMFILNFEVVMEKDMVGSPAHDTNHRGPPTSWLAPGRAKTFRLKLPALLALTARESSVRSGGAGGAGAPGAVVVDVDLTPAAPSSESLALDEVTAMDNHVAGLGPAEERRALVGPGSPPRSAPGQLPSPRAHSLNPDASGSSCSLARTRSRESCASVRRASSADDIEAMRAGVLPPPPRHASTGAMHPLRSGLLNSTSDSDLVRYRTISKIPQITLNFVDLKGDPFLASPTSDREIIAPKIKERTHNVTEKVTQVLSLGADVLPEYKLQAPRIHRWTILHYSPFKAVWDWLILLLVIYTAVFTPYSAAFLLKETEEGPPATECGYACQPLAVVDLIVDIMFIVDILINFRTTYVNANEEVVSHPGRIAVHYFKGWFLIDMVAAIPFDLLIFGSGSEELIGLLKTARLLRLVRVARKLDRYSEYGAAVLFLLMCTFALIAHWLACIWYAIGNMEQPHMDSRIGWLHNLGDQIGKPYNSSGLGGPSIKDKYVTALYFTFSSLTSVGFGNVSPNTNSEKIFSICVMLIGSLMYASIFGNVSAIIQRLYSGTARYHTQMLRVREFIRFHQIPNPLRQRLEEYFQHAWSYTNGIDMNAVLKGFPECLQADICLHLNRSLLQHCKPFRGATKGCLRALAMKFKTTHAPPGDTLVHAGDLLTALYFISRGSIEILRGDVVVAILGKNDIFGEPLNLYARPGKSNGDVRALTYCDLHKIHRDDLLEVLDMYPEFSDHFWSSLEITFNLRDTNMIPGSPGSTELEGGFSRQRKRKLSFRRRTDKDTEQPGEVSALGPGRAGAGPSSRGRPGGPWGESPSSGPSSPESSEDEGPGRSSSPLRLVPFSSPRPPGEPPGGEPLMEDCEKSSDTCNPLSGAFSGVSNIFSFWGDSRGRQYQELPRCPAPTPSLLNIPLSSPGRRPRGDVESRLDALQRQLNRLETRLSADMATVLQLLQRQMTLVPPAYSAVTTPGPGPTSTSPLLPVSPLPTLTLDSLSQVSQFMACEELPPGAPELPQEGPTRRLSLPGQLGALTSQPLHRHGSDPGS

SMILES | hERG current change (%, negative = inhibition) at 1uM
S=c1[nH]nc(-c2ccncc2)n1/N=C/c1cccc(Cl)c1 | 8.7%
CCOC(=O)N1C2=NC(C(=O)OC)=C(C(=O)OC)[C@@H]3N(Cc4ccccc4)c4ccccc4[C@]23C[C@H]1C(=O)OC | 8.88%
CC(=O)Nc1cccc(NC(=O)CCNC(=O)c2ccc(Cl)cc2)c1 | 12.8%
C=CCn1c2ccccc2c(=O)c2cc(C#CC[C@@H](C)O)ccc21 | 6.55%
Cc1ccc(NC(=O)c2cccc(NC(=O)/C=C/c3ccco3)c2)cc1C | 17.2%
CCOc1ccc(CC(=O)Nc2ccc(S(=O)(=O)N3CCCC3)cc2)cc1 | 13.7%
CC(=O)N1CCC(C(=O)Nc2cc(C)cc(C)c2)CC1 | 13.5%
O=S(=O)(c1cccs1)N1CCC(CO)(Cc2cccc(F)c2)CC1 | 5.2%
CCCCCC(=O)Nc1c(-c2ccc(OC)cc2)c(=O)c2ccccc2n1C | 8.68%
Cc1c(C(=O)NCc2ccccn2)sc2nc(-c3ccccc3)cn12 | 10%
O=C(c1cccc(S(=O)(=O)N2CCOCC2)c1)N1CCN(C/C=C/c2ccccc2)CC1 | -11.4%
COc1ccc2[nH]c3ccccc3c2c1 | 6.6%
Cc1ccc(C)c(S(=O)(=O)N2CCN(C(=O)c3ccncc3)CC2)c1 | 13.9%
Cc1ccc(S(=O)(=O)N2CCN(C(=O)CSc3ncn[nH]3)CC2)cc1 | 9.32%
COc1cc(OC)cc(C(=O)N2CCC(C(=O)c3ccc(F)cc3)CC2)c1 | -1.28%
Cc1cc(NC(=O)CSCc2ccccc2)no1 | 14.4%
CCN=C1SC(C(=O)Nc2cccc(C(=O)O)c2)CC(=O)N1CC (stereo not drawn) | 2.81%
COCCNC(=O)CN1CCN(S(=O)(=O)c2ccc3c(c2)CCCC3)CC1 | 6.76%
CN(C)S(=O)(=O)c1ccc(C(=O)Nc2ccc3c(c2)CCC3)cc1 | 6.27%
CCOC(=O)C(=O)NNc1ccc(Cl)cc1 | 10.4%
CC(C)(C)c1csc(NC(=O)CSC2=NCCS2)n1 | 4.1%
CCOC(=O)/C(C#N)=C/Nc1ccsc1C(C)=O | 8.88%

SMILES | hERG current change (%, negative = inhibition) at 1uM
Cc1ccc(COC(=O)CCN=C2NS(=O)(=O)c3ccccc32)cc1 | -0.276%
COc1ccc(NC(=O)c2sc3nc(N4CCOCC4)c4c(c3c2N)CCCC4)c(OC)c1 | 18.7%
COc1ccc2cc([C@H](C)C(=O)N(C)Cc3ccccc3N3CCCC3)ccc2c1 | 12.8%
COc1ccc(CN(C)CC(=O)Nc2cc(OC)c([N+](=O)[O-])cc2C)c(OC)c1 | -6.94%
CC(=O)Nc1ccc(NC(=O)CSc2cn(CC(=O)N3CCOCC3)c3ccccc23)cc1 | 15.8%
COc1ccc(CCNC(=O)/C(C#N)=C2\N=C(NC(=O)c3cccs3)c3ccccc32)cc1 | 7.76%
Cc1ccccc1C(=O)NNC(=O)C1CC(=O)N(Cc2ccccc2)C1 (stereo not drawn) | -1.12%
CSc1ncccc1C(=O)Nc1ccc(OC(F)(F)F)cc1 | 11.4%
O=c1[nH]c(CN2CCN(Cc3ccc4c(c3)OCO4)CC2)nc2ccccc12 | -28%
CC(C)OCCCNc1nc2c(-c3ccccc3)nnn2c2ccccc12 | 17.7%
COc1cc(C)c(Cl)cc1S(=O)(=O)n1cnc2ccccc21 | 10.8%
O=C(Nc1cccc(F)c1)c1c(O)c2ccccc2[nH]c1=O | 13.4%
CC1CCc2c(sc(NC(=O)COC(=O)c3ccc(O)cc3)c2C#N)C1 (stereo not drawn) | 13.3%
COc1ccccc1C(=O)NNC(=O)C(=O)Nc1ccc(C)c(Cl)c1 | 11.5%
CCOC(=O)C1CCCN(C(=O)c2cc(-c3ccc(F)cc3)nc3ccccc23)C1 (stereo not drawn) | 9.67%
CCOC(=O)C1(Cc2cccc(OC)c2)CCCN(Cc2cc(C(C)C)n[nH]2)C1 (stereo not drawn) | 2.83%
C=CCSc1nc(N)cc(=O)[nH]1 | 1.41%
CC(=O)Nc1ccc(S(=O)(=O)Nc2cc(C)cn(Cc3ccccc3)c2=O)cc1 | 10.5%
CS(=O)(=O)c1ccc(Cl)c(NC(=O)COC(=O)CNC(=O)c2ccccc2)c1 | 2.22%
O=C(O)c1oc2ccccc2c1CSc1ccccn1 | 12%
O=[N+]([O-])c1cc(F)c(N2CCCCCC2)cc1N1CCNCC1 | 1.26%
CC(C(=O)N(C)C1CCS(=O)(=O)C1)N1C(=O)/C(=C/c2ccc(F)cc2)SC1=S (stereo not drawn) | -8.7%

SMILES | hERG current change (%, negative = inhibition) at 1uM
COCCCNC(=O)C1CCN(S(=O)(=O)c2c(C)noc2/C=C\c2ccc(OC)cc2)CC1 | -0.111%
Cc1cccc(C(=O)NCC(=O)N2CCN(S(=O)(=O)c3ccc4c(c3)OCCO4)CC2)c1 | 6.49%
CC(=O)Nc1ccc(S(=O)(=O)NCC2CCC(C(=O)NCCc3ccccc3)CC2)cc1 (stereo not drawn) | -4.08%
COc1ccc(S(=O)(=O)N2CCCCC2)cc1NC(=O)CCNC(=O)c1ccc(Br)cc1 | 14%
Cn1cnc([N+](=O)[O-])c1Sc1ncnc2nc[nH]c12 | 6.98%
CC(NC(=O)c1ccc([N+](=O)[O-])cc1Cl)C1CC2CCC1C2 (stereo not drawn) | 8.63%
CN1CCC(N2CCN(c3cccc(C(F)(F)F)c3)CC2)CC1 | 4.06%
Cc1noc(C)c1CSCC(=O)OCc1nc2ccccc2c(=O)n1CC#N | 8.54%
Cc1cc(CN(C)Cc2cn(C)nc2-c2ccc(Oc3ccccc3)cc2)on1 | 2.33%
CC1(NC(=S)Nc2ccc3ccccc3c2)CCS(=O)(=O)C1 (stereo not drawn) | 14.2%
CCOc1ccc(-n2c(O)c(C=NCCN3CCNCC3)c(=O)[nH]c2=O)cc1 | 6.88%
O=C(c1ccccc1)n1nc(-c2ccccc2)nc1NCc1ccco1 | 10%
CCN(CC)C(=O)C1CCN(S(=O)(=O)c2ccc(C3CNC(=O)C3)cc2)CC1 (stereo not drawn) | 9.06%
COc1ccc(C2/C(=C(\O)c3ccc4c(c3)OCCO4)C(=O)C(=O)N2Cc2ccco2)c(OC)c1 (stereo not drawn) | -11.5%
CC(C)OC(=O)CC1C(=O)NCCN1C(=O)COc1ccc(C(C)(C)C)cc1 (stereo not drawn) | 14.6%
COc1ccc(NC(=S)NNc2ccc([N+](=O)[O-])cc2S(=O)(=O)Nc2ccc(C)cc2C)cc1 | 1.69%
CN(/N=C/c1cc(Br)cc(Br)c1O)c1ccccc1 | 28.8%
Cc1c(C(=O)N2CCOCC2)[nH]c2c1C(=O)CC(c1ccccc1Cl)C2 (stereo not drawn) | 2.29%
Cc1ccn2cc(CNS(=O)(=O)c3ccc(Cl)s3)nc2c1 | -0.135%
CC1(C)S[C@@H]2[C@H](NC(=O)Cc3ccccc3)C(=O)N2[C@H]1C(=O)O | 3.75%
S=c1[nH]nc(-c2ccc3ccccc3n2)n1Cc1ccccc1 | 10.9%
CCS(=O)(=O)c1ccc(O)c(NC(=O)Nc2ccccc2OC)c1 | 2.26%

SMILES | hERG current change (%, negative = inhibition) at 1uM
COc1ccccc1-c1nnc(SCC(=O)O)n1C | 10.3%
Cc1nn(CC(=O)N2CCC(N3CCCCC3)CC2)c(=O)c2c1sc1ccccc12 | 2.41%
O=C(CSc1nnnn1-c1cccc(O)c1)NC1CC1 | 28%
CCSc1nc2ccccc2n1C(=O)c1ccc(S(=O)(=O)N2CCCCC2)cc1 | -4.43%
O=C(Cn1cc2c(n1)CCCC2)NC1CCCCCC1 | 6.31%
COc1ccc(C2N(C(=O)c3ccccc3)CCN2C(=O)c2ccc(C)cc2)cc1 (stereo not drawn) | -4.15%
O=C(CCNC(=O)c1ccc([N+](=O)[O-])cc1)Nc1cc(Cl)ccc1N1CCOCC1 | -18.6%
COc1ccc(N(C(=O)c2ccco2)C(C(=O)NC2CCCC2)c2cccs2)cc1 (stereo not drawn) | -0.12%
CCOc1ccc(OCCC(=O)Nc2ccc3c(c2)OCO3)cc1 | 11.1%
CN(CC1CCCN(CCc2ccccc2F)C1)C(=O)c1ccoc1 (stereo not drawn) | -25.9%
Cc1cc(C)cc(-n2c(C)cc(C(=O)CSc3nnnn3C)c2C)c1 | 15.4%
N/C(=N\OC(=O)/C=C/c1ccc(Br)cc1)c1ccccn1 | 4.54%
COC(=O)c1cc(S(=O)(=O)N2CCCC2)c(Cl)cc1Cl | 8.41%
O=C(Cn1nc(-c2ccccc2)ccc1=O)N1CCOCC1 | 1.45%
CN(CC(O)COCc1cccs1)C1CCCCC1 (stereo not drawn) | 3.27%
N/C(=N\OC(=O)c1ccc(Cl)c([N+](=O)[O-])c1)c1ccccn1 | -2.58%
O=C(CCC(=O)N1CCSc2ccccc21)NCc1ccccc1 | 7.62%
O=C(NCCc1ccccc1)C1CCC(=O)N1CCc1ccccc1 (stereo not drawn) | 10.1%
Cc1occc1C(=O)N/N=C/c1cccc2ccccc12 | 13.5%
COC(=O)CNc1nc(Cl)nc(Nc2ccc(Cl)cc2)n1 | 25%
COc1ccc(OC)c(-n2c(=S)[nH]c3cc(C(=O)N(C)Cc4ccccc4)ccc3c2=O)c1 | 10.9%
